Measurements: publication PMC2572732, “Structural Coupling of SH2-Kinase Domains Links Fes and Abl Substrate Recognition and Kinase Activation” (Cell, 2008)

Test system: optimal Abl substrate peptide
Assay: In vitro Abl kinase activity of purified Abl proteins on an optimal Abl substrate peptide
Conditions: SH2-KD vs KD, due to an effect on vmax

B1: SH2-KD: Abl polypeptide containing the SH2 and kinase domains, residues 138-534, HA-tagged (protein, UniProt P00519 138-534, looked up, fragment)
chain: EYLLSSGINGSFLVRESESSPGQRSISLRYEGRVYHYRINTASDGKLYVSSESRFNTLAELVHHHSTVADGLITTLHYPAPKRNKPTVYGVSPNYDKWEMERTDITMKHKLGGGQYGEVYEGVWKKYSLTVAVKTLKEDTMEVEEFLKEAAVMKEIKHPNLVQLLGVCTREPPFYIITEFMTYGNLLDYLRECNRQEVNAVVLLYMATQISSAMEYLEKKNFIHRDLAARNCLVGENHLVKVADFGLSRLMTGDTYTAHAGAKFPIKWTAPESLAYNKFSIKSDVWAFGVLLWEIATYGMSPYPGIDLSQVYELLEKDYRMERPEGCPEKVYELMRACWQWNPSDRPSFAEIHQAFETMFQESSISDEVEKELGKQGVRGAVSTLLQAPELPTKTRT
modifications: SH2-kinase domains HA tag
  activity relative to kinase domain alone: ~4 fold
